Assay results taken from PubChem BioAssay AID485281 (National Center for Advancing Translational Sciences (NCATS), 2010).
Screen size: about 350,000 compounds; about 260 (0.074%) were called active. The shares of active, inactive and inconclusive entries below differ from those in the screen. Calls follow the shape of the dose curve; as a rule, active = well fitted inhibition curve with a large enough effect; inconclusive = small, poorly fitted or top-dose-only effect; inactive = no such curve, though single readings can be large or run the other way. A potency beside an inconclusive call is a rough fit, not a confirmed value.

Target: Ferritin light chain (Equus caballus) (UniProt P02791)
Experiment: qHTS Assay for Identification of Novel General Anesthetics; also: nearly all actives have a fitted effect of over 20% in size
Settings: apoferritin/1-aminoanthracene competitive binding, fluorescence; activity change, negative = displacement: at 77.5 µM (top of the series)
Summary of the method: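 In PBS, apoferritin at 10 uM is loaded with 1-AMA from a 50% saturated solution. After 10 min of compound exposure at ambient temperature, reduced 535 nm fluorescence indicates probe displacement.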
% is scaled to controls: 0 for no effect and ±100 for the full control effect; potency is read from the fitted curve at half-maximal effect; tags tell the direction and shape of the fitted curve.

Sequence of UniProt P02791 (P02791 whole entry, looked up): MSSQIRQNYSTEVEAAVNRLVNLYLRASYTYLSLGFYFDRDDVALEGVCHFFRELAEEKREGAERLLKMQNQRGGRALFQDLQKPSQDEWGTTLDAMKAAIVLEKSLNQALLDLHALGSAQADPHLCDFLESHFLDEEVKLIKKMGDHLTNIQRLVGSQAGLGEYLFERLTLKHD

Potency, inactive:
COc1cc2nc(Nc3cccc(F)c3)nc(N)c2cc1OC

Potency, inconclusive:
O=C(CN1C(=O)COc2ccccc21)N1CCc2ccccc21 31.6 µM [inhibitor, partial curve]
O=c1c2ccccc2c2ccccc2c(=O)n1CC1CCCO1 (stereo not given) 44.7 µM [inhibitor, partial curve, poor fit]
c1ccc(-c2csc(-n3cnnn3)n2)cc1 50.1 µM [inhibitor, single point]
O=C1COc2ccc(C(=O)COC(=O)CNC(=O)c3ccccc3)cc2N1 28.2 µM [inhibitor, partial curve]
CCOc1cccc(NCc2cc3c(C(C)(C)C)nn(-c4ccccc4)c3[nH]c2=O)c1 8.91 µM [inhibitor, partial curve]
Cc1cc(/C=C2/NC(=O)NC2=O)c(C)n1-c1ccc(N2CCOCC2)cc1 22.4 µM [inhibitor, partial curve]
COc1cc2c(cc1OC)C(COc1ccc(C(C)C)cc1)NCC2 (stereo not given) 11.2 µM [inhibitor, partial curve]
CCN(CCn1cccn1)C(=O)c1cc(COc2ccccc2SC)on1 25.1 µM [inhibitor, single point]
Cc1cc(CN2C(=O)c3ccccc3C2=O)cc(N2CCOCC2)c1 28.2 µM [inhibitor, partial curve]
O=S(=O)(NCCc1nnc2ccc(SCc3ccccc3Cl)nn12)c1ccccc1 50.1 µM [inhibitor, single point]
COc1ccc(OC)c(NC(=O)c2nc(S(=O)(=O)Cc3ccc(F)cc3)ncc2Cl)c1 28.2 µM [inhibitor, partial curve]
O=C(Cc1ccccc1)N1CCCC1c1ccccc1 (stereo not given) 31.6 µM [inhibitor, partial curve]
CCCCOc1ccc(C(=O)N/C(=C/C=C/c2ccccc2)C(=O)NCCO)cc1 50.1 µM [inhibitor, single point]
COc1ccc(C(=O)c2cn(CC(=O)Nc3cc(C)ccc3C)c3nc(C)ccc3c2=O)cc1 0.891 µM [inhibitor, full curve]
CC(C)Oc1ccc(CNC(=O)C2=Cc3ccccc3OC2)cc1 14.1 µM [inhibitor, partial curve]
Cc1cccc(N2CCN(C(=O)/C=C/c3cccs3)CC2)c1C 20 µM [inhibitor, partial curve]
Cc1ccc(NC(=O)Cn2nc(C)c3ccccc3c2=O)cc1 22.4 µM [inhibitor, partial curve]
Cc1cc(C)n(-c2nnc(NCc3ccc(Cl)cc3)nn2)n1 35.5 µM [inhibitor, partial curve]
Cc1ccc(Cl)c(NC(=S)N(CCCN2CCOCC2)Cc2ccco2)c1 35.5 µM [inhibitor, single point]
COc1ccc(OCC(=O)N/N=C(\C)CC(=O)Nc2ccc(OC)cc2[N+](=O)[O-])cc1 15.8 µM [inhibitor, partial curve]
NC(=O)c1ccccc1OCC(=O)NC12CC3CC(CC(C3)C1)C2 31.6 µM [inhibitor, partial curve]
CCN(CC)S(=O)(=O)c1cc(C(=O)Nc2ccc(Cl)cn2)ccc1C 15.8 µM [inhibitor, partial curve]
O=C1Nc2ccccc2/C1=N/c1sc2c(c1C(=O)NCCc1ccccc1)CCCC2 14.1 µM [inhibitor, partial curve]
COc1ccc(-n2c(C)cc(C(=O)CN3C(=O)C(=O)N(Cc4ccccc4)C3=O)c2C)cc1 6.31 µM [inhibitor, partial curve]
CCOC(=O)Cc1ccc(NC(=O)NCc2c(-n3cccc3)sc3c2CCCC3)cc1 28.2 µM [inhibitor, partial curve]
COc1ccccc1NC(=O)CN1C(=O)NC(CC(C)C)C1=O (stereo not given) 50.1 µM [inhibitor, single point]
Clc1cccc(Cl)c1Cn1c(-c2cccnc2Cl)nc2ccccc21 10 µM [inhibitor, partial curve]
CC(C)(C)Cc1nnc(NC(=O)CSc2ccccc2)s1 10 µM [inhibitor, partial curve]
C=CCc1cccc(CNc2ccc(Br)cc2)c1O 12.6 µM [inhibitor, partial curve]

Activity change, negative = displacement, inactive:
O=C(Nc1ccc(S(=O)(=O)N2CCOCC2)cc1)c1ccc2c(c1)S(=O)(=O)c1ccccc1C2=O -8.79%
Cc1cc(C)n(-c2nc3ccccc3[nH]c2=O)n1 -13%
COc1cc(NC(=O)CSc2nc3c(c(=O)n(C)c(=O)n3C)n2C)cc(OC)c1 -5.38%
Cc1ccc(C2/C(=C(/O)c3ccc(Cl)cc3)C(=O)C(=O)N2CC2CCCO2)o1 (stereo not given) -9.04%
Cc1ccc2oc(-c3ccc(C)c(NC(=O)/C=C/c4ccco4)c3)nc2c1 3.01%
Cc1nc(Cl)sc1C(=O)Nc1ccccc1 2.59%
O=c1[nH]c(=O)n(Cc2ccco2)c2c1C(C(F)(F)F)(C(F)(F)F)N=C(CCC1CCCCC1)N2 -18.9%
COc1ccc(/C=C/C(=O)Nc2cc(C(F)(F)F)ccc2Cl)cc1 -15%
Cn1c(NN)nc2sc3c(c2c1=O)CC(C)(C)OC3 -8.72%
CN(C(=O)CCc1nc(-c2ccccc2F)no1)c1ccc(Cl)cc1 -12.7%
NS(=O)(=O)c1ccc(CNC(=O)/C=C/c2ccco2)cc1 2.34%
Cc1ccc(C)c2c1c1ccccc1n2C -8.74%
CC(C)(C)C(=O)OCC(=O)C1CCC2C3CCC4=CC(=O)CCC4(C)C3CCC12C (stereo not given) -19.3%
CCc1cccc(NC(=O)C2CCCN(c3ncnc4onc(-c5ccc(F)cc5)c34)C2)c1 (stereo not given) -9.7%
O=C(CCNC(=O)Cn1cnc2ccccc2c1=O)NCC1COc2ccccc2O1 (stereo not given) -4.58%
